# Experimental data published in the supplement of paper PMC8813932.
# This is one part of the list. Repeats are few or missing, and single values can be far off.
# Tested on: Ov4Cis
# Assay: log2 surviving fraction relative to plate median (drug vs vehicle, or drug+dl922-947 vs dl922-947 alone); ovarian cancer lines: OVCAR4 is platinum-sensitive while Ov4Cis resists cisplatin and Ov4Carbo carboplatin; higher = more cell survival
# Settings: dl922-947 oncolytic adenovirus co-treatment: none; compound concentration: 10 uM; 192 h
row,SMILES,log2 surviving fraction
1,C=CC(=O)N1CCC[C@@H](n2nc(-c3ccc(Oc4ccccc4)cc3)c3c(N)ncnc32)C1,-1.22
2,Cn1c(=O)c2c(ncn2CC(O)CO)n(C)c1=O (centres undefined) [Dyphylline (Dilor)],0.0375
3,C=C1/C(=C\C=C2/CCC[C@]3(C)[C@@H]([C@H](C)/C=C/[C@H](C)C(C)C)CC[C@@H]23)C[C@@H](O)C[C@@H]1O [Doxercalciferol (Hectorol)],-0.782
4,O=C(O)c1cc(-c2ccccc2)nc2ccccc12 [Cinchophen],-0.255
